From ChEMBL document CHEMBL4888484, “Replenishing the malaria drug discovery pipeline: Screening and hit evaluation of the MMV Hit Generation Library 1 (HGL1) against asexual blood stage Plasmodium falciparum ,using a nano luciferase reporter read-out” (2022) come the findings set out here.

The whole screen tested about 150,000 compounds, of which about 540 (0.36%) showed an effect of 50% or more. This is one part of the list.

In the test the test system is Plasmodium falciparum. Put plainly: Primary screen in NF54 nanoGlo assay, in single point, at 2uM, 72h; a lower Z score goes with more inhibition. It counts as functional, Erythrocyte. As to conditions: timepoint 72 hour.
Regarding `Cc1cc(C)nc(Cn2cc(-c3ccc(C)c(F)c3F)nn2)n1`, the % Inhibition (usually the relative decrease from the control value, in per cent) is -16% and the Z score worked out at 1.9.
As to `Cc1cccc(NC(=O)Cn2nc3cnc4ccccc4n3c2=O)c1C`, the “% Inhibition” value is recorded as -6% and the Z score stood at 0.69.
On to `CCS(=O)(=O)N(CCN1CCCCC1)C1CN(C(=O)COc2ccc(F)cc2)C1`, for which the “% Inhibition” value was -3% and the Z score was found to be 0.44.
The matching figures for `O=C(CN(Cc1ccco1)[C@H]1CCS(=O)(=O)C1)c1c[nH]c(C(=O)N2CCCC2)c1`: -2% and 0.29.
For the molecule `Cc1cnc(C2CC2)n1[C@H]1CCN(S(=O)(=O)c2ccc3c(c2)OCCO3)C1`, the “% Inhibition” value is recorded as -4% and the Z score turned out to be 0.48.
On to `CC(C)c1cc(C(=O)N[C@H]2CCOc3ccccc32)n[nH]1`, for which the “% Inhibition” value is listed as -12% and the Z score amounted to 1.58.
Regarding `CC(C)[C@H](C)N1Cc2cccc(N)c2C1`, the “% Inhibition” value stood at 0% and the Z score is reported as 0.01.
Consider `Cc1[nH]c2ccccc2c1CN1CCC(n2nccc2NC(=O)c2ccccc2)CC1`, for which the “% Inhibition” value came to 2% and the Z score is given as -0.18.
With `O=c1[nH]c2ccc(S(=O)(=O)NCc3ccccc3)cc2c2ccccc12`, the “% Inhibition” value is given as -4% and the Z score stood at 0.53.
For the molecule `Cn1nc(C(=O)NC2CCCC2)c2c1CCNC2`, the “% Inhibition” value is on record as -14% and the Z score amounted to 1.79.
For the molecule `CC[C@H](NC(=O)C1(C)COC1)c1cc(C)ccn1`, the “% Inhibition” value is -16% and the Z score was 1.74.
With `Cc1cc(=O)n(CC(=O)Nc2ccc(C)c(F)c2)c(N2CCc3ccccc3C2)n1`, the “% Inhibition” value is on record as -19% and the Z score was determined as 1.71.
Regarding `O=C(c1cc(-c2ccc(Cl)s2)nc2ccccc12)N1CCN(c2ncccn2)CC1`, the “% Inhibition” value is given as -7% and the Z score is reported as 1.02.
On to `COc1cc(NC(=O)CCc2ccnn2C)cc(-n2cnnn2)c1`, for which the “% Inhibition” value is recorded as 1% and the Z score is reported as -0.14.
Turning to `Cc1cc(C)n(C(=O)COc2ccc(-c3ccccc3)cc2)n1`, the “% Inhibition” value is recorded as -2% and the Z score worked out at 0.31.
As for `CCn1nc(CN2CCC(NC(=O)c3ccc(OC)nc3)CC2)c2c1CCOC2`, the “% Inhibition” value is reported as 7% and the Z score is -1.09.
Take `C[C@@H](C(=O)N1CCC(c2nc3c(s2)CCC3)CC1)n1cncn1`: the “% Inhibition” value is reported as -13% and the Z score is listed as 1.88.
With `Cc1cc(C)n(-c2ccc(Cn3nc(C(N)=O)ccc3=O)cc2)n1`, the “% Inhibition” value turned out to be 4% and the Z score is listed as -0.69.
In the case of `O=C(CCCNC(=O)c1cc(F)c(F)c(F)c1)Nc1cn[nH]c1`, the “% Inhibition” value is listed as -16% and the Z score was determined as 2.31.
In the case of `CCc1cc(C(=O)N[C@@H]2COCC[C@@H]2OCC2CCC2)ccn1`, the “% Inhibition” value was -4% and the Z score worked out at 0.62.
The matching figures for `CCC1(CC)C(=O)N=C(Nc2cccc(C(F)(F)F)c2)NC1=O`: 11% and -2.13.
Take `CC(C)CS(=O)(=O)N1CC(Oc2ccccc2)C1`: the “% Inhibition” value was -31% and the Z score was 2.73.
As for `Cc1ccoc1C(=O)N1CCC(CNC(=O)C2CCCC2)CC1`, the “% Inhibition” value is given as -3% and the Z score is given as 0.34.
As for `Cc1cc(CNC(=O)C2CC(O)(C3CCCCC3)C2)n(C)n1` (centres undefined), the “% Inhibition” value is on record as -4% and the Z score amounted to 0.59.
In the case of `CC1(C)Cc2ccc(Cl)c(NC(=O)N[C@H]3CCN(C4CCC4)C3=O)c2O1`, the “% Inhibition” value was found to be 0% and the Z score is 0.04.
Regarding `CCn1nc(C)c(-c2cc(-c3c[nH]nc3C(=O)OC)c(C#N)c(N)n2)c1C`, the “% Inhibition” value is -16% and the Z score is 2.39.
Turning to `CN(C)S(=O)(=O)N1CCC[C@H]1c1nn(CCOc2ccccc2)c2c1COCC2`, the “% Inhibition” value is -8% and the Z score is recorded as 1.04.
Take `COCc1nc2n(n1)[C@@H](c1ccco1)C[C@@H](C)N2`: the “% Inhibition” value was -2% and the Z score is 0.2.
Turning to `Cc1ccc(S(=O)(=O)NC[C@H]2CC3c4ccccc4C2c2ccccc23)cc1`, the “% Inhibition” value is given as -2% and the Z score is 0.26.
As for `Cc1nnc(NCC2CCS(=O)(=O)CC2)c(C#N)c1C`, the “% Inhibition” value was determined as 23% and the Z score is recorded as -2.63.
Taken in the same sequence, the figures for `CCC[C@H](C)NC(=O)c1ccc(C)cc1Cl` were -7% and 1.03.
For `Cc1cnn(CCCn2ccnc2-c2cccc3nonc23)c1`, the “% Inhibition” value is listed as 0% and the Z score is -0.01.
`Cc1cccc(N2CCN(C(=O)c3ccc([C@H]4CCCNC4)cc3)CC2)c1C`: the “% Inhibition” value stood at 7% and the Z score was -0.94.
Taken in the same sequence, the figures for `O=C1CC[C@](CCC(=O)N2CCCC2)(Cc2cccc3ccccc23)N1` were -3% and 0.38.
The matching figures for `Cn1c(CN2CCOCC2)nnc1[C@H]1CCCN(c2nccc(N)n2)C1`: -14% and 2.72.
`C[C@@H](Cc1cccnc1)Nc1cc(-c2ccccc2F)nc2ccnn12`: the “% Inhibition” value is on record as -6% and the Z score is recorded as 1.04.
With `Cn1c(-n2nc(C3CCOCC3)nc2-c2cn[nH]c2)nc2ccccc21`, the “% Inhibition” value was -16% and the Z score came to 1.47.
Consider `COCC(=O)NC[C@]1(O)CCCN(C(=O)NCc2cccc(F)c2)CC1`, for which the “% Inhibition” value was determined as 0% and the Z score was -0.02.
The matching figures for `O=C(NC1CCCC1)[C@H]1CC(=O)N(Cc2cccc(C(F)(F)F)c2)C1`: -2% and 0.33.
As to `COc1nccnc1N1CC[C@H](N2CCOCC2)[C@H](CCCO)C1`, the “% Inhibition” value was -7% and the Z score was determined as 1.27.
Take `O=S1(=O)N=C(NC(c2ccccc2)c2ccccc2)c2ccccc21`: the “% Inhibition” value is reported as -8% and the Z score is reported as 1.15.
As for `Cc1cc(C(=O)N2CC(C)CC(C)C2)nc2c1c(-c1ccccc1)nn2-c1cccc(F)c1` (centres undefined), the “% Inhibition” value was determined as 5% and the Z score was -0.67.
The matching figures for `CCc1nc2c(s1)[C@@H](N(C)Cc1cncn1CC)CCC2`: 0% and -0.04.
As for `C=CC[C@]1(CO)CCCN(c2cc(N3CCCC3)nc(N)n2)C1`, the “% Inhibition” value is given as -3% and the Z score came to 0.44.
For the molecule `Cc1nscc1C(=O)NC[C@H](O)c1ccc(OC(F)(F)F)cc1`, the “% Inhibition” value was -2% and the Z score is 0.15.
Consider `CCc1nc(C)c(CNC(=O)c2cc3cc(C)ccn3n2)s1`, for which the “% Inhibition” value is recorded as -18% and the Z score was determined as 2.33.
The matching figures for `CC(=O)N1CCc2cc(N3C[C@@H](C(=O)Nc4cc(F)ccc4F)CC3=O)ccc21`: -4% and 0.74.
For `O=C1[C@H]2[C@@H](C(=O)N1c1ccc3c(c1)OCO3)[C@]1(C(=O)Nc3c(Cl)cccc31)N1CCC[C@@H]21`, the “% Inhibition” value is -3% and the Z score worked out at 0.44.
On to `O=C(N(C1CCCCC1)C1CCCCC1)C(F)(F)C(F)(F)C(F)(F)F`, for which the “% Inhibition” value was 8% and the Z score is reported as -1.54.
As for `Cc1nn(C(C)C)c(C)c1CN(C)C(=O)c1nnc(CN(C)C)o1`, the “% Inhibition” value was -3% and the Z score is listed as 0.38.
Take `Nc1ccc2c(c1)[nH]c(=O)n2-c1cccc(Cl)c1`: the “% Inhibition” value was -13% and the Z score is 1.56.
As to `Cc1ccc(S(=O)(=O)N2C[C@@H](F)C[C@H]2C(=O)N2CCc3ccccc3C2)c(C)c1`, the “% Inhibition” value is listed as -7% and the Z score worked out at 0.78.
